According to PubChem BioAssay (Tox21):
The inconclusive results got no clear call from the source; some entries with a clear call stand among them for comparison. For part of these data: Where the call is inconclusive, the potency comes from a doubtful curve fit. The source made the active and inactive calls. Unless noted, calls come from the whole dose curve; as a rule, active = well fitted curve in the direction sought with a large enough effect in the repeat runs; inconclusive = weak or mixed curves; inactive = no such curve, though single readings can be large; an effect the other way counts as inactive or inconclusive.

Tests used:
[1] = qHTS assay for small molecule agonists of the p53 signaling pathway (AID 651631; calls by dose curve; note: potency is the fitted concentration of half-maximal effect; nearly all actives have a fitted effect of over 15% in size); settings: HCT-116 p53RE-bla reporter, beta-lactamase FRET ratio, 16 h; activation: at 73.3 µM (top of the series) unless noted
Method in brief: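 Read-out is beta-lactamase FRET fluorescence measured 2 h after substrate addition at room temperature, in HCT-116 cells with a p53 response element-driven reporter exposed to compounds for 16 h at 37 °C.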

[2] = molecular target: Glucocorticoid receptor (Homo sapiens) (UniProt P04150); test: qHTS assay to identify small molecule antagonists of the glucocorticoid receptor (GR) signaling pathway (AID 720692; active = well fitted inhibition curve with a large enough effect in the signal ratio in the repeat runs, not every such curve was filed as active; inconclusive = weak or mixed curves, or effect the other way; inactive = no such curve, though single readings can be large or run the other way; the % refers to the signal ratio; note: potency is the fitted concentration of half-maximal effect); settings: GR-bla HeLa, beta-lactamase FRET ratio, dexamethasone-stimulated, 18 h; activity change, negative = inhibition: at 58.5 µM (top of the series) unless noted
Method in brief: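 Dexamethasone (5 nM final) stimulated a stably integrated GRE-beta-lactamase reporter in HeLa cells during 18 h co-incubation with compounds; signal was quantified as fluorescence intensity of B/G FRET substrate after 2 h.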

[3] = qHTS assay for identifying genotoxic compounds that show differential cytotoxicity against isogenic chicken DT40 cell lines with known DNA damage response pathways - Rev3 mutant cell line (AID 743014); settings: chicken DT40 Rev3-/- viability, CellTiter-Glo, 40 h; activity, negative = cytotoxicity: at 68.4 µM (top of the series) unless noted; note: nearly all actives have a fitted effect of over 55% in size; note: potency is the fitted concentration of half-maximal effect
[4] = molecular target: Peroxisome proliferator-activated receptor gamma (Homo sapiens) (UniProt P37231); test: qHTS assay to identify small molecule antagonists of the peroxisome proliferator-activated receptor gamma (PPARg) signaling pathway (AID 743191; calls by dose curve; note: nearly all actives have a fitted effect of over 30% in size; note: potency is the fitted concentration of half-maximal effect; for ratio activity, negative = inhibition: % is set by controls: 0 for no effect and ±100 for the full control effect); settings: HEK293H PPARg-UAS-bla, beta-lactamase ratio, antagonist, 17 h; ratio activity, negative = inhibition: at 62.6 µM (top of the series) unless noted
Method in brief: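 GeneBLAzer PPARg UAS-bla HEK293H cells carrying a UAS-driven beta-lactamase reporter were plated at 3000 cells/well, preincubated 5 h at 37C, then given compound for 17 h at 37C; LiveBLAzer B/G FRET substrate was read after 1 h at room temperature.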

[5] = qHTS assay for small molecule agonists of the antioxidant response element (ARE) signaling pathway (AID 743202; active = well fitted activation curve with a large enough effect in the signal ratio in the repeat runs, not every such curve was filed as active; inconclusive = weak or mixed curves, or effect the other way; inactive = no such curve, though single readings can be large or run the other way; the % refers to the signal ratio; note: potency is the fitted concentration of half-maximal effect); settings: HepG2 ARE-bla reporter, beta-lactamase FRET, 16 h; activation: at 73.3 µM (top of the series) unless noted
Method in brief: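 Compounds delivered in DMSO to ARE-bla HepG2 cells (2,000 cells/well, pre-incubated 5 h) and left 16 h at 37 C. LiveBLAzer B/G FRET substrate then added for 2 h at RT before fluorescence reading.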

[6] = molecular target: Vitamin D3 receptor (Homo sapiens) (UniProt P11473); test: qHTS assay to identify small molecule antagonists of the vitamin D receptor (VDR) signaling pathway (AID 743223; active = well fitted inhibition curve with a large enough effect in the signal ratio in the repeat runs, not every such curve was filed as active; inconclusive = weak or mixed curves, or effect the other way; inactive = no such curve, though single readings can be large or run the other way; the % refers to the signal ratio; note: % is set by controls: 0 for no effect and ±100 for the full control effect); settings: VDR-UAS-bla HEK293T, beta-lactamase FRET ratio, 16 h; activity change, negative = inhibition: at 61 µM (top of the series) unless noted
Method in brief: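 Antagonist mode uses 1alpha,25-dihydroxyvitamin D3 at 3 nM final as stimulus. VDR-bla cells receive compounds in DMSO, incubate 16 h at 37C, then a beta-lactamase FRET substrate for 2 h at room temperature before fluorescence measurement.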

[7] = molecular target: Luciferin 4-monooxygenase (Photinus pyralis) (UniProt P08659); test: qHTS assay to identify small molecule inhibitors of firefly luciferase (AID 1224835); note: nearly all actives have a fitted effect of over 25% in size; note: potency is the fitted concentration of half-maximal effect; for activity change, negative = inhibition: % is set by controls: 0 for no effect and ±100 for the full control effect
Method in brief: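 Quantitative HTS format; KM concentrations of both substrates. Purified P. pyralis FLuc activity quantified from luminescence images.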

[8] = qHTS assay to identify small molecule antagonists of the progesterone receptor (PR) signaling pathway - cell viability counter screen (AID 1346798); note: nearly all actives have a fitted effect of over 50% in size; note: potency is the fitted concentration of half-maximal effect
Method in brief: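 HEK293T PR-UAS-bla, 2% charcoal-stripped FBS; 4 hr pre-plate; cpd + R5020, 16 h 37C; LiveBLAzer read first; then CellTiter-Glo 30 min RT, luminescence.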

[9] = qHTS assay to identify small molecule agonists of the progesterone receptor (PR) signaling pathway - cell viability counter screen (AID 1346799; calls by dose curve; note: nearly all actives have a fitted effect of over 45% in size; note: potency is the fitted concentration of half-maximal effect)
Method in brief: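 Luminescence from CellTiter-Glo, added after the beta-lactamase FRET read in the same wells, gave cytotoxicity in PR-UAS-bla HEK293T cells treated with compounds for 16 hr at 37C.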

[10] = molecular target: Cytochrome P450 2C9 (Homo sapiens) (UniProt P11712); test: Cytochrome P450 Family 2 Subfamily C Member 9 (CYP2C9) small molecule antagonists: luciferase reporter qHTS assay (AID 1671198); note: nearly all actives have a fitted effect of over 50% in size; note: potency is the fitted concentration of half-maximal effect
Method in brief: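 CYP2C9 activity was measured with a P450-Glo proluciferin substrate. Enzyme–substrate mix was held with compound for 10 min at room temperature, then NADPH regeneration solution was added for 1 h at 37C. Luciferin product was read as luminescence.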

[11] = molecular target: Cytochrome P450 1A2 (Homo sapiens) (UniProt P05177); test: Cytochrome P450 Family 1 Subfamily A Member 2 (CYP1A2) small molecule antagonists: luciferase reporter qHTS assay (AID 1671199); note: nearly all actives have a fitted effect of over 50% in size; note: potency is the fitted concentration of half-maximal effect
Method in brief: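 CYP1A2 turnover of a luminogenic substrate was quantified after 1 h with NADPH regeneration at room temperature. Furafylline served as positive control.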

[12] = molecular target: Estrogen receptor beta (Homo sapiens) (UniProt Q92731); test: qHTS assay to identify small molecule antagonists of the estrogen receptor beta (ER-beta) signaling pathway (AID 1259378; active = well fitted inhibition curve with a large enough effect in the signal ratio in the repeat runs, not every such curve was filed as active; inconclusive = weak or mixed curves, or effect the other way; inactive = no such curve, though single readings can be large or run the other way; the % refers to the signal ratio; note: potency is the fitted concentration of half-maximal effect); settings: ER-beta-UAS-bla HEK293T, beta-lactamase FRET ratio, 16 h; activity, negative = inhibition: at 92.4 µM (top of the series) unless noted
Method in brief: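 ER-beta-UAS-bla HEK293T (GripTite) cells in 2% charcoal-stripped FBS medium were preincubated 6 hr at 37C, dosed with compound, then stimulated with 1 nM E2 (final) for 16 hr; beta-lactamase reporter read by B/G FRET fluorescence after 2 hr substrate loading.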

[13] = qHTS assay for identifying genotoxic compounds that show differential cytotoxicity against isogenic chicken DT40 cell lines with known DNA damage response pathways - wild type cell line (AID 743012); settings: DT40 wild type chicken cells viability, CellTiter-Glo, 40 h; activity change, negative = cytotoxicity: at 68.4 µM (top of the series) unless noted; note: nearly all actives have a fitted effect of over 60% in size; note: potency is the fitted concentration of half-maximal effect
Method in brief: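 Using parental DT40 (300 cells/well), compounds delivered in DMSO incubate 40 h at 37 C/5% CO2. CellTiter-Glo reagent then stands 30 min at room temperature, and luminescence gives cell viability.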

[14] = qHTS RealTime-Glo MT Cell Viability Assay in HEK293 cells - 24 hour (AID 1224886); note: nearly all actives have a fitted effect of over 50% in size; note: potency is the fitted concentration of half-maximal effect
Method in brief: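 Reads taken at 0, 8, 16, 24, 32 and 40 h from the same wells. HEK293 cells (600/well) carried RealTime-Glo reagents from seeding, with compound added after a 5 h settle at 37 C.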

[15] = molecular target: Progesterone receptor (Homo sapiens) (UniProt P06401); test: qHTS assay to identify small molecule antagonists of the progesterone receptor (PR) signaling pathway (AID 1346795; active = well fitted inhibition curve with a large enough effect in the signal ratio in the repeat runs, not every such curve was filed as active; inconclusive = weak or mixed curves; the % refers to the signal ratio; note: potency is the fitted concentration of half-maximal effect); settings: PR-UAS-bla HEK293T, beta-lactamase FRET ratio, 16 h; activity change, negative = inhibition: at 92.4 µM (top of the series) unless noted
Method in brief: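 Read-out is fluorescence from the LiveBLAzer B/G FRET substrate, cleaved by a UAS-controlled beta-lactamase in PR-UAS-bla HEK293T cells after 16 hr exposure to compound plus 1 nM promegestone (final), followed by 2 hr at room temperature.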

[16] = molecular target: Cytochrome P450 2D6 (Homo sapiens) (UniProt P10635); test: Cytochrome P450 Family 2 Subfamily D Member 6 (CYP2D6) small molecule antagonists: luciferase reporter qHTS assay (AID 1671196)
Method in brief: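 Luminescence (RLU), read 20 min after detection reagent, indicated CYP2D6 conversion of proluciferin to luciferin during a 1 h NADPH-dependent reaction at room temperature.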

[17] = qHTS assay for small molecule disruptors of the mitochondrial membrane potential (AID 720635); settings: HepG2 mitochondrial membrane potential, Mito-MPS dye ratio; ratio activity, negative = MMP loss: at 83.2 µM (top of the series) unless noted; note: potency is the fitted concentration of half-maximal effect
Method in brief: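 HepG2 cells (2,000/well) attached overnight at 37C, then took compound for 1 hr at 37C, 5% CO2. Mito-MPS dye was added for 30 min; fluorescence was read at 490/535 nm (monomers) and 540/590 nm (aggregates).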

[18] = molecular target: Peroxisome proliferator-activated receptor delta (Homo sapiens) (UniProt Q03181); test: qHTS assay to identify small molecule antagonists of the peroxisome proliferator-activated receptor delta (PPARd) signaling pathway (AID 743215; active = well fitted inhibition curve with a large enough effect in the signal ratio in the repeat runs, not every such curve was filed as active; inconclusive = weak or mixed curves, or effect the other way; inactive = no such curve, though single readings can be large or run the other way; the % refers to the signal ratio;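 note: cells stimulated with agonist L165041 at 300 nM final during compound exposure; % is set by controls: 0 for no effect and ±100 for the full control effect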); settings: HEK293H PPARd-UAS-bla, beta-lactamase FRET ratio, antagonist, 17 h; ratio activity, negative = inhibition: at 62 µM (top of the series) unless noted
Method in brief: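 With L165041 present at 300 nM final, compounds were incubated 17 h at 37 C on PPARd UAS-bla HEK293H cells. A FRET-based beta-lactamase substrate was then applied for 2 h at room temperature and fluorescence intensity recorded.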

[19] = qHTS assay to identify small molecule antagonists of the thyroid receptor (TR) signaling pathway - cell viability counter screen (AID 743064); settings: GH3.TRE-Luc viability, CellTiter-Fluor, 24 h; activity change, negative = cytotoxic: at 70.3 µM (top of the series) unless noted; note: nearly all actives have a fitted effect of over 50% in size; note: potency is the fitted concentration of half-maximal effect
Method in brief: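 Fluorescence from CellTiter-Fluor, added after 23.5 h exposure at 37 °C, reported viability of GH3.TRE-Luc cells co-treated with compound and 1 nM T3. Measured in the same wells as the luciferase TR readout.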
Tags give direction and shape of the fitted curve or compound fluorescence and quenching.

UniProt P11712, sequence (P11712 whole entry, looked up): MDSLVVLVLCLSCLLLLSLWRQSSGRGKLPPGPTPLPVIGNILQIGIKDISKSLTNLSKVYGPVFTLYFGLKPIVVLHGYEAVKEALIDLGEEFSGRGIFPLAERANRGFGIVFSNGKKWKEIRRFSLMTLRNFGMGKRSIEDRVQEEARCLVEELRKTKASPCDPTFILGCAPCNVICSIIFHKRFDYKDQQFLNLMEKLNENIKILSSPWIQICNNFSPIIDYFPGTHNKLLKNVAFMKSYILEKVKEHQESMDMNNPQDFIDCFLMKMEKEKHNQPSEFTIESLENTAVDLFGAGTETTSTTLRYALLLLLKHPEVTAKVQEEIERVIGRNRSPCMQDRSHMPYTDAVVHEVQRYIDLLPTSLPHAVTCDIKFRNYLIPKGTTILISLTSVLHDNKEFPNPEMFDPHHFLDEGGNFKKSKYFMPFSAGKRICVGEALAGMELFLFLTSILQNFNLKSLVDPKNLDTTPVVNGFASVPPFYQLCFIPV
UniProt P10635, sequence (P10635 whole entry, looked up): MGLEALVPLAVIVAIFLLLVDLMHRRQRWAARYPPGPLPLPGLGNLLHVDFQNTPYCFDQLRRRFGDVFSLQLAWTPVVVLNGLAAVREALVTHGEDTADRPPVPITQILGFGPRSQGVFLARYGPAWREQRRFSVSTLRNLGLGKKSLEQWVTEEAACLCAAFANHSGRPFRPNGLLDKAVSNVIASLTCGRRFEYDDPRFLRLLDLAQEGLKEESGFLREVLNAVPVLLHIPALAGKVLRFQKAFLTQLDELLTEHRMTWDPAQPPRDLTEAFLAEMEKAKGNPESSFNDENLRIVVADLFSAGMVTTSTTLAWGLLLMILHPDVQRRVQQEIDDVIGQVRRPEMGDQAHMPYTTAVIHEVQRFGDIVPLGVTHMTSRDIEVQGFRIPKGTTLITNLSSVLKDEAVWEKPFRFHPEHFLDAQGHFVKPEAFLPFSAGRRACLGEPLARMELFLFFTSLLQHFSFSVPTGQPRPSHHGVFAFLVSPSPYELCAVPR
UniProt Q92731, sequence (Q92731 whole entry, looked up): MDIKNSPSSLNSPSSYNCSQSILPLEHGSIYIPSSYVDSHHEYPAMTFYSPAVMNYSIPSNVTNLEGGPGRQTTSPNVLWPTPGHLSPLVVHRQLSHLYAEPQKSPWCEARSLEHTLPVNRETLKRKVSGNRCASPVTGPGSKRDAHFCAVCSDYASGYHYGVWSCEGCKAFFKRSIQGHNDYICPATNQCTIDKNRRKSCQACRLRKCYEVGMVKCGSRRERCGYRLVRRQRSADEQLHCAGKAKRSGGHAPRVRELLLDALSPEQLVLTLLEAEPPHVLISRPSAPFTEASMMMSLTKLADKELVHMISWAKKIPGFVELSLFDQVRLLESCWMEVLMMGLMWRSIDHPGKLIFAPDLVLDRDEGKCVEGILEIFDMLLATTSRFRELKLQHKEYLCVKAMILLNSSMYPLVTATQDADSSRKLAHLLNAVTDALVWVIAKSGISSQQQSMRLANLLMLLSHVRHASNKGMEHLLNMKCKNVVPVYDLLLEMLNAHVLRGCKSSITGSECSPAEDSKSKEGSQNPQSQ
UniProt P04150, sequence (P04150 whole entry, looked up): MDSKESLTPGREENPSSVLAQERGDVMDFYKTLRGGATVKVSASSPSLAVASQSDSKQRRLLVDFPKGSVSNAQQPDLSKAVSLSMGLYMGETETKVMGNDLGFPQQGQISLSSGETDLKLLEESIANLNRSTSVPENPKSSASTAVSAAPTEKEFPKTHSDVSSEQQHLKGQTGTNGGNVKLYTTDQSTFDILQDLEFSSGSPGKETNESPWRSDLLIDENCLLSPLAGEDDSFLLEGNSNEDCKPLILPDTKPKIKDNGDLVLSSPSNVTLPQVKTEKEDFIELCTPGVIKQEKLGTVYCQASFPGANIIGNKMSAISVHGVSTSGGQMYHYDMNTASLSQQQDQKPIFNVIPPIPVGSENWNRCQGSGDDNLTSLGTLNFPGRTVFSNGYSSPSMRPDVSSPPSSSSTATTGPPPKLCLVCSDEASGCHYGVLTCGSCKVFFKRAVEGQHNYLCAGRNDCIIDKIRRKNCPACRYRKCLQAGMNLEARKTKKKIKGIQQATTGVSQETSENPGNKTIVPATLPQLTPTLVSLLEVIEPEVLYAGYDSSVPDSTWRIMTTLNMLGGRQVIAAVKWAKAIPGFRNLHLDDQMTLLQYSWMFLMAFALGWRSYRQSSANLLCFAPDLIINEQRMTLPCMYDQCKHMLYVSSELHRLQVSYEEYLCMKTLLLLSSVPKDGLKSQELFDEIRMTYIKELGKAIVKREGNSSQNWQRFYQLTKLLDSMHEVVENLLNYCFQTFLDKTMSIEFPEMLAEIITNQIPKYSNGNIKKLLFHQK
UniProt P37231, sequence (P37231 whole entry, looked up): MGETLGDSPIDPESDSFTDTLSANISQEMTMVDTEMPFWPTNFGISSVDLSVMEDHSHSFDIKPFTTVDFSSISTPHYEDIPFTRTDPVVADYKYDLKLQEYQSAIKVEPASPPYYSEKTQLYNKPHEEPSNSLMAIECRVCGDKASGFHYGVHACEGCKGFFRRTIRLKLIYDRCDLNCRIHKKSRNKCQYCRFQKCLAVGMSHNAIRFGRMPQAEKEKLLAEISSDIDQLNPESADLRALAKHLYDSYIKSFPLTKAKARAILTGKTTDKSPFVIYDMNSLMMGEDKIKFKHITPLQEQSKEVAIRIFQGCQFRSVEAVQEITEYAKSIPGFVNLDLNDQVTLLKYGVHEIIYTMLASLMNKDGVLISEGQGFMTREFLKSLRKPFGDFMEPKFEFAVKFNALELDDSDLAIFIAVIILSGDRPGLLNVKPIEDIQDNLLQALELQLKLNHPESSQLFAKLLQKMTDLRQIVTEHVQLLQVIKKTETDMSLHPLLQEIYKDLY
UniProt P08659, sequence (P08659 whole entry, looked up): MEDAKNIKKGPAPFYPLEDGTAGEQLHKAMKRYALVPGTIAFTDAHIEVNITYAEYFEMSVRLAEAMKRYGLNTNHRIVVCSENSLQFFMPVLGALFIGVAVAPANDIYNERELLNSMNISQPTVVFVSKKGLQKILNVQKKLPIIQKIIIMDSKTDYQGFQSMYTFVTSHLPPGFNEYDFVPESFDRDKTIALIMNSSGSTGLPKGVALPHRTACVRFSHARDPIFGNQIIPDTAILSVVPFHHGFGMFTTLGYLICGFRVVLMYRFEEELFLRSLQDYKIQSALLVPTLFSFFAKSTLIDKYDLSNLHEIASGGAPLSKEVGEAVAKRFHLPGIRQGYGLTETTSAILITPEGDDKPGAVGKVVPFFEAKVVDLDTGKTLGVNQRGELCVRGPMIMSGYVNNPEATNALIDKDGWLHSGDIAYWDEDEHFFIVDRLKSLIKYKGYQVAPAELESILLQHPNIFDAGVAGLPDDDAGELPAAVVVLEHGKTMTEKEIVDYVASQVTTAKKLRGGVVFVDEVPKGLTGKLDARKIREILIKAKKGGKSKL
UniProt P06401, sequence (P06401 whole entry, looked up): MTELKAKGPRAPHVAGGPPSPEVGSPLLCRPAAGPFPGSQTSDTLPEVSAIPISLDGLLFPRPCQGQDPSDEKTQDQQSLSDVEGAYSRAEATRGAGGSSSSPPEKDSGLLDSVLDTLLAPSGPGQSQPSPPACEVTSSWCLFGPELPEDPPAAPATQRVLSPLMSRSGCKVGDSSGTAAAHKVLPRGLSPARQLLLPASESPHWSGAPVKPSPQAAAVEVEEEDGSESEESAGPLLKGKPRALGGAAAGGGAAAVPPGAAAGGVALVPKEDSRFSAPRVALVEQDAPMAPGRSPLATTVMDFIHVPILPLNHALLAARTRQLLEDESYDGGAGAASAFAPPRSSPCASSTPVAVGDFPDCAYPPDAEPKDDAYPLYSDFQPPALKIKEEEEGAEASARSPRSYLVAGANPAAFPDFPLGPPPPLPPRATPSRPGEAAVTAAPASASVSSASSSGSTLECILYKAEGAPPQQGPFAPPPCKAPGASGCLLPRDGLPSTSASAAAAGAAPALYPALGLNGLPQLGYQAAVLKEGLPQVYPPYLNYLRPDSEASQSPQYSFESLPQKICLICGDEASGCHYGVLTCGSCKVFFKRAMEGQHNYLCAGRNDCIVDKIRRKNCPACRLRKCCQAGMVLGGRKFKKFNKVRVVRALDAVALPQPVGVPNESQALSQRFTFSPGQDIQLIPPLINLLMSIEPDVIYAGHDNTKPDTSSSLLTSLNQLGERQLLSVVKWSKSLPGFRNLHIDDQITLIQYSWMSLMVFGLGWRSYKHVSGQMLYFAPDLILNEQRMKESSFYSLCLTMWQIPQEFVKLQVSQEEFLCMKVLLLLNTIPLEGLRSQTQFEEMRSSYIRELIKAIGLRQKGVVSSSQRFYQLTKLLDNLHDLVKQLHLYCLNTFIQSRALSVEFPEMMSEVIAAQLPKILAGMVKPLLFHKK
UniProt P05177, sequence (P05177 whole entry, looked up): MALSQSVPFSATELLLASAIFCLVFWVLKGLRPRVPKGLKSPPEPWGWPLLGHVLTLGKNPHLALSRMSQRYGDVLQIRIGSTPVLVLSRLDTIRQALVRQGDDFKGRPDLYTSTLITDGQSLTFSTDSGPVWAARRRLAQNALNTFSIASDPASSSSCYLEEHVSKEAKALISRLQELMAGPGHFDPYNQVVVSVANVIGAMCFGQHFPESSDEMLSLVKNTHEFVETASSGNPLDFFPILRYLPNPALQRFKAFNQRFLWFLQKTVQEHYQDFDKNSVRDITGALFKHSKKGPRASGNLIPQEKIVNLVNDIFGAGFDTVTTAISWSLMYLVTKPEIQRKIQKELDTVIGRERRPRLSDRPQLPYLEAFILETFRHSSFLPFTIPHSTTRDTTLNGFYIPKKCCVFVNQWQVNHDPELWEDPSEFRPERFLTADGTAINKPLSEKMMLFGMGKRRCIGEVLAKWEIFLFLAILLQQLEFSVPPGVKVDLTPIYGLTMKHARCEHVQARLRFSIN

CCCC(=O)O[C@]1(C(=O)CCl)[C@@H](C)C[C@H]2[C@@H]3CCC4=CC(=O)C=C[C@]4(C)[C@@]3(F)C(=O)C[C@@]21C
inactive: Potency [7] | Potency [11]
inconclusive: Potency [1] 33.5 µM [falling, single point] | Potency [2] 0.0268 µM [falling, full curve, poor fit] | ratio activity, negative = inhibition [4] 18.7% | Potency [5] 26.6 µM [rising, partial curve] | activity change, negative = inhibition [6] 7.54% | Potency [8] 13.3 µM [rising, full curve] | Potency [9] 2.66 µM [rising, full curve] | Potency [10] 21.9 µM [inhibitor, partial curve]
active: Potency [3] 7.5 µM

C[C@H]1C[C@@H](O)CC(C)(C)C1
inconclusive: Potency [9] 68.6 µM [cytotoxic, single point]
inactive: Potency [4] | Potency [12]

CCCCCCCCCOCC1CO1 (configuration not stated)
inactive: Potency [2] | Potency [13] | Potency [4] | Potency [14] | Potency [12] | Potency [8]
inconclusive: activation [5] 1.8% [at 94.8 µM] | Potency [7] 104 µM [inhibitor, single point] | activity change, negative = inhibition [15] 4% | Potency [16] 92.8 µM [inhibitor, partial curve] | Potency [11] 82.8 µM [inhibitor, partial curve]

CNCCO
inconclusive: activation [5] 5.76%
inactive: Potency [17] | Potency [18] | Potency [7] | Potency [9]

CC(=O)SC[C@@H](C)C(=O)N1CCC[C@H]1C(=O)N[C@@H](Cc1ccccc1)C(=O)O
inconclusive: Potency [17] 33.5 µM [inhibitor, single point]
inactive: Potency [13] | Potency [4] | Potency [7] | Potency [8]

C[C@H](CCC(=O)NCC(=O)O)[C@H]1CC[C@H]2[C@@H]3[C@H](O)C[C@@H]4C[C@H](O)CC[C@]4(C)[C@H]3C[C@H](O)[C@]12C
inconclusive: Potency [19] 0.529 µM [rising, single point] | activation [5] -0.922%
inactive: Potency [3] | Potency [7] | Potency [12]
active: Potency [14] 13.4 µM

CCN(CC)CCNC(=O)COc1ccc(Cl)cc1
inconclusive: ratio activity, negative = MMP loss [17] 44.6% | Potency [13] 33.5 µM [cytotoxic, partial curve, poor fit] | activity change, negative = cytotoxic [19] -35.9% [cytotoxic] | Potency [11] 12.9 µM [inhibitor, partial curve]
inactive: Potency [15]

O=C(O)C(S)C(S)C(=O)O (configuration not stated)
inconclusive: Potency [1] 13.3 µM [activator, partial curve, poor fit] | activity change, negative = inhibition [2] -1.12% | ratio activity, negative = inhibition [4] -14.3% | Potency [5] 23.7 µM [rising, partial curve] | Potency [7] 12.3 µM [inhibitor, full curve, poor fit] | Potency [10] 17.4 µM [inhibitor, partial curve]
inactive: Potency [13]

CO[Si](CCCNCCC[Si](OC)(OC)OC)(OC)OC
inconclusive: ratio activity, negative = inhibition [4] -4.67% | activity change, negative = inhibition [15] 0.75%
inactive: Potency [17] | Potency [5] | Potency [7] | Potency [8] | Potency [9]

Oc1ccccc1Cc1ccccc1O
inactive: Potency [2]
inconclusive: ratio activity, negative = inhibition [18] -21.2% | activity change, negative = inhibition [6] -36.9% | Potency [14] 21.9 µM [cytotoxic, partial curve] | Potency [12] 27.3 µM [rising, full curve] | Potency [8] 61.1 µM [rising, single point] | Potency [9] 61.1 µM [rising, partial curve] | Potency [16] 71 µM [inhibitor, partial curve] | Potency [11] 44.8 µM [inhibitor, partial curve]
active: Potency [17] 7.7 µM | Potency [4] 30.9 µM | Potency [5] 38.6 µM | Potency [15] 27.3 µM | Potency [10] 39.9 µM

CC(C)(C)c1ccc(C=O)cc1
inconclusive: activity change, negative = inhibition [2] 19.5% | ratio activity, negative = inhibition [4] 25.2% | Potency [7] 88.3 µM [inhibitor, partial curve, poor fit] | Potency [11] 70.2 µM [inhibitor, partial curve, poor fit]
inactive: Potency [17] | Potency [15] | Potency [10]

CCCCC(CC)COC(=O)COc1ccc(Cl)cc1Cl (configuration not stated)
inactive: Potency [13]
active: Potency [10] 32.2 µM
inconclusive: Potency [19] 49.3 µM [rising, partial curve] | Potency [7] 64.3 µM [inhibitor, partial curve] | activity change, negative = inhibition [15] -29.6% | Potency [16] 57.3 µM [inhibitor, partial curve]
